Reference: patent publication US20230227584A1
Residue numbers refer to the chain shown, from its start.

Key:
[1] = molecular target: T1, human OX40 on the cell surface (activated human T cells; HeLa_hOx40_NFkB_Luc1 reporter cells) (human), P43489; experiment: cell-based or functional assay
T1 chain: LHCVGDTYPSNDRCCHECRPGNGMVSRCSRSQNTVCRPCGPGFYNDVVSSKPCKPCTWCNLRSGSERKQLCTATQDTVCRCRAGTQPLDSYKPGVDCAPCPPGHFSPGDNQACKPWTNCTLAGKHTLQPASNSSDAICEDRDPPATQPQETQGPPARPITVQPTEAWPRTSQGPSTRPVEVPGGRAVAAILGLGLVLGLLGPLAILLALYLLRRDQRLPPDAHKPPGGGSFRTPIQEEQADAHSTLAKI

[2] = molecular target: human fibroblast activation protein (huFAP) on NIH/3T3-huFAP clone 19 cells (human), Q12884; experiment: flow cytometry, NIH/3T3-huFAP clone 19 cells
[3] = molecular target: T1, human OX40 on the cell surface …; experiment: flow cytometry, activated human PBMC gated on CD4+ T cells

B1: P1AF7217 OX40 (CLC563) x FAP (1G1a_EPKSCS) (4+1) C-terminal crossfab fusion (bispecific antibody, human IgG1, kappa)
heavy 1: [sequence of about 100 residues not given]DVGAFDYWGQGALVTVSSASTKGPSVFPLAPSSKSTSGGTAALGCLVEDYFPEPVTVSWNSGALTSGVHTFPAVLQSSGLYSLSSVVTVPSSSLGTQTYICNVNHKPSNTKVDEKVEPKSCGGGGSGGSGG[sequence of about 100 residues not given]DVGAFDYWGQGALVTVSSASTKGPSVFPLAPSSKSTSGGTAALGCLVEDYFPEPVTVSWNSGALTSGVHTFPAVLQSSGLYSLSSVVTVPSSSLGTQTYICNVNHKPSNTKVDEKV[sequence of human IgG1 Fc with changes not given]GGGGSGGGGSGGGGSGGSGGQVQLVQSGAEVKKPGASVKVSCKASGYTLTDYNMDWVRQAPGQGLEWIGDIYPNTGGTIYNQKFKGRVTMTIDTSTSTVYMELSSLRSEDTAVYYCTRFRGIHYAMDYWGQGTTVTVSSASVAAPSVFIFPPSDEQLKSGTASVVCLLNNFYPREAKVQWKVDNALQSGNSQESVTEQDSKDSTYSLSSTLTLSKADYEKHKVYACEVTHQGLSSPVTKSFNRGEC
heavy 2: [sequence of about 100 residues not given]DVGAFDYWGQGALVTVSSASTKGPSVFPLAPSSKSTSGGTAALGCLVEDYFPEPVTVSWNSGALTSGVHTFPAVLQSSGLYSLSSVVTVPSSSLGTQTYICNVNHKPSNTKVDEKVEPKSCGGGGSGGSGG[sequence of about 100 residues not given]DVGAFDYWGQGALVTVSSASTKGPSVFPLAPSSKSTSGGTAALGCLVEDYFPEPVTVSWNSGALTSGVHTFPAVLQSSGLYSLSSVVTVPSSSLGTQTYICNVNHKPSNTKVDEKVEPKSCDKTHTCPPCPAPEAAGGPSVFLFPPKPKDTLMISRTPEVTCVVVDVSHEDPEVKFNWYVDGVEVHNAKTKPREEQYNSTYRVVSVLTVLHQDWLNGKEYKCKVSNKALGAPIEKTISKAKGQPREPQVCTLPPSRDELTKNQVSLSCAVKGFYPSDIAVEWESNGQPENNYKTTPPVLDSDGSFFLVSKLTVDKSRWQQGNVFSCSVMHEALHNHYTQKSLSLSP
light 1: [sequence of about 100 residues not given][sequence of about 100 residues not given]
light 2: EIVLTQSPATLSLSPGERATLSCRASESVDNYGLSFINWFQQKPGQAPRLLIYGTSNRGSGIPARFSGSGSGTDFTLTISSLEPEDFAVYFCQQSNEVPYTFGGGTKVEIKSSASTKGPSVFPLAPSSKSTSGGTAALGCLVKDYFPEPVTVSWNSGALTSGVHTFPAVLQSSGLYSLSSVVTVPSSSLGTQTYICNVNHKPSNTKVDKKVEPKSCS
- EC50 of CD25 upregulation on CD4+ T cells, suboptimal TCR stimulation of human PBMC with NIH/3T3-huFAP cells [1]: 2 pM
- EC50 of NFκB activation (luciferase), HeLa hOx40 NFkB Luc1, w/ hu FAP [1]: 180 pM
- EC50 of NFκB activation (luciferase), HeLa hOx40 NFkB Luc1, w/o [1]: 700 pM
- EC50 of increased TCB mediated cytokine secretion following FAP-OX40 costimulation of primary human PBMCs [1]: 58 pM
- EC50 of suppression of FoxP3 induction (FoxP3 MFI) on TGFβ-exposed CD4 T cells, FAP-coated beads [1]: 10 pM
- EC50 [2]: 1330 pM
- EC50 [3]: 1460 pM

B2: P1AF7205 OX40(CLC563) x FAP (1G1a_EPKSCD) (4+1) C-terminal crossfab fusion (bispecific antibody, human IgG1, kappa)
heavy 1: [sequence of about 100 residues not given]DVGAFDYWGQGALVTVSSASTKGPSVFPLAPSSKSTSGGTAALGCLVEDYFPEPVTVSWNSGALTSGVHTFPAVLQSSGLYSLSSVVTVPSSSLGTQTYICNVNHKPSNTKVDEKVEPKSCGGGGSGGSGG[sequence of about 100 residues not given]DVGAFDYWGQGALVTVSSASTKGPSVFPLAPSSKSTSGGTAALGCLVEDYFPEPVTVSWNSGALTSGVHTFPAVLQSSGLYSLSSVVTVPSSSLGTQTYICNVNHKPSNTKVDEKV[sequence of human IgG1 Fc with changes not given]GGGGSGGGGSGGGGSGGSGGQVQLVQSGAEVKKPGASVKVSCKASGYTLTDYNMDWVRQAPGQGLEWIGDIYPNTGGTIYNQKFKGRVTMTIDTSTSTVYMELSSLRSEDTAVYYCTRFRGIHYAMDYWGQGTTVTVSSASVAAPSVFIFPPSDEQLKSGTASVVCLLNNFYPREAKVQWKVDNALQSGNSQESVTEQDSKDSTYSLSSTLTLSKADYEKHKVYACEVTHQGLSSPVTKSFNRGEC
heavy 2: [sequence of about 100 residues not given]DVGAFDYWGQGALVTVSSASTKGPSVFPLAPSSKSTSGGTAALGCLVEDYFPEPVTVSWNSGALTSGVHTFPAVLQSSGLYSLSSVVTVPSSSLGTQTYICNVNHKPSNTKVDEKVEPKSCGGGGSGGSGG[sequence of about 100 residues not given]DVGAFDYWGQGALVTVSSASTKGPSVFPLAPSSKSTSGGTAALGCLVEDYFPEPVTVSWNSGALTSGVHTFPAVLQSSGLYSLSSVVTVPSSSLGTQTYICNVNHKPSNTKVDEKVEPKSCDKTHTCPPCPAPEAAGGPSVFLFPPKPKDTLMISRTPEVTCVVVDVSHEDPEVKFNWYVDGVEVHNAKTKPREEQYNSTYRVVSVLTVLHQDWLNGKEYKCKVSNKALGAPIEKTISKAKGQPREPQVCTLPPSRDELTKNQVSLSCAVKGFYPSDIAVEWESNGQPENNYKTTPPVLDSDGSFFLVSKLTVDKSRWQQGNVFSCSVMHEALHNHYTQKSLSLSP
light 1: [sequence of about 100 residues not given][sequence of about 100 residues not given]
light 2: B1 light 2 with S217D
- EC50 [2]: 1040 pM
